Laboratory results reported in PubChem BioAssay AID1259400 (National Center for Advancing Translational Sciences (NCATS), 2018).
The campaign covered roughly 350,000 compounds. About 2,100 (0.6%) were called active. The shares of active, inactive and inconclusive entries below differ from those in the screen.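 Rule for the calls: active = activity change of -60% or lower, but not beyond a set lower limit; inconclusive = change between -60% and -40%, or beyond the set limit; inactive = change above -40%.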

biological target: Relaxin receptor 1 (Homo sapiens) (UniProt Q9HBX9); assay: qHTS Assay for Antagonists of the Relaxin Receptor RXFP1; conditions: HEK293-RXFP1, relaxin-stimulated cAMP HTRF, 30 min; at 57.5 µM; stronger effect = lower value
% is set by controls: 0 for no effect and ±100 for the full control effect.

Chain of UniProt Q9HBX9 (Q9HBX9 whole entry, looked up): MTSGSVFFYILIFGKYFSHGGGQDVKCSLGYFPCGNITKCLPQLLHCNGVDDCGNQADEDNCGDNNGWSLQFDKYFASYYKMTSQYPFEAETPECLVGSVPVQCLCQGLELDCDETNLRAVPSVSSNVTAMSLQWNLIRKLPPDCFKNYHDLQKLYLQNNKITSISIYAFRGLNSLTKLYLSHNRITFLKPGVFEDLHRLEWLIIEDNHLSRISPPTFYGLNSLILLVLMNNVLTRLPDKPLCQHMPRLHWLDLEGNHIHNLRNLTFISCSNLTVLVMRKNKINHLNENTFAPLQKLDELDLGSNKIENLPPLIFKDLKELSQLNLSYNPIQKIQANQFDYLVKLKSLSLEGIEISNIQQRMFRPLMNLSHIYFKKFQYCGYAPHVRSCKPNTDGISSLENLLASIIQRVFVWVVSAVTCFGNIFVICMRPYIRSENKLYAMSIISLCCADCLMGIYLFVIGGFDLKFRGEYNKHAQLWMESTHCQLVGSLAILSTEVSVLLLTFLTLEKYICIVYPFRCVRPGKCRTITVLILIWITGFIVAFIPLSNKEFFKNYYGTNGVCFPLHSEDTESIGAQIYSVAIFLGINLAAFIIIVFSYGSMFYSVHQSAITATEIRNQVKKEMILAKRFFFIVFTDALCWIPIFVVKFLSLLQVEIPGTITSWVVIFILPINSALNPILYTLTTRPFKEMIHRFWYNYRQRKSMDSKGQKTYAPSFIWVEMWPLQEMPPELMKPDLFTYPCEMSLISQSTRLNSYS

| Structure (SMILES) | activity change, negative = inhibition |
| --- | --- |
| CCn1c(SCc2nc3ccccc3c(=O)[nH]2)nc2ccccc21 | inconclusive: -49.9% |
| C=CCNC(=O)C1CCN(c2nc(C)cc(-c3ccccc3)n2)CC1 | inactive: 3.36% |
| CN(C)CCN(C(=O)c1ccc2c(c1)OCCO2)c1nc2ccc(Cl)cc2s1 | inconclusive: -46.8% |
| Nc1ccc2nc3c(=O)[nH]c(=S)[nH]c3nc2c1 | inconclusive: -42.3% |
| CC12CCC(C(=O)Nc3nc4ccc(Br)cc4s3)(OC1=O)C2(C)C (stereo unspecified) | inconclusive: -43% |
| O=c1cc(O)c2sc(Nc3ccc(F)c(Cl)c3)nc2[nH]1 | inconclusive: -43.9% |
| O=C1C(F)=CC(COC(c2ccccc2)(c2ccccc2)c2ccccc2)OC1n1cc(F)c(=O)[nH]c1=O (stereo unspecified) | active: -83.7% |
| c1ccc2c(Nc3ccc4c(c3)OCCO4)c3c(nc2c1)CCCC3 | inconclusive: -48.1% |
| CC1(C)CC2(CC(c3ccccc3F)c3ccc(O)c(O)c3O2)NC(=S)N1 (stereo unspecified) | active: -76.3% |
| CCOc1ccc2[nH]c(=O)c(CN(Cc3cccs3)C(CC)c3nnnn3C(C)(C)CC)cc2c1 (stereo unspecified) | inactive: 12.7% |
| Cc1ccc(C=C2C(=O)c3ccccc3C2=O)s1 | inactive: -38.4% |
| CC(=O)c1c(C)[nH]c(C(=O)N2CCN(C(=O)c3ccco3)CC2)c1C | inactive: 0.52% |
| O=C(Oc1ccccc1C(=O)Nc1ccccc1)c1ccc(Br)c([N+](=O)[O-])c1 | inconclusive: -48.9% |
| COc1ccc2c(CNCc3cccs3)c(C(=O)O)n(Cc3ccccc3F)c2c1 | inconclusive: -40.4% |
| COc1ccccc1N1CCN(CC(O)COc2cc(OC)c(OC)c(OC)c2)CC1 (stereo unspecified) | inactive: 7.67% |
| COc1cccc(-c2cc(C(F)(F)F)nc(NCc3ccco3)n2)c1 | inconclusive: -42.5% |
| CC1CC(C)CN(CCCNC(=O)c2cc3c(s2)-c2ccccc2OC3)C1 (stereo unspecified) | inconclusive: -58% |
| COc1ccc(OC)c(Nc2nc(NCCCN(C)C)nc(N)c2[N+](=O)[O-])c1 | inconclusive: -42.8% |
| CCc1ccc(-n2nc(CO)c(C(=O)NCc3ccccc3OC)n2)cc1 | inactive: -11.2% |
| NC(=S)N/N=C/c1ccccc1OC(=O)/C=C/c1ccccc1 | inconclusive: -41.4% |
| S=c1[nH]nc(-c2cccnc2)n1/N=C/c1ccc(Br)s1 | inactive: -4.07% |
| O=C(NCc1ccco1)C(c1ccccc1)N(C(=O)Cc1cccs1)c1cccnc1 (stereo unspecified) | inconclusive: -41.1% |

| Structure (SMILES) | activity change, negative = inhibition |
| --- | --- |
| CCOC(=O)c1cc(-c2ccccc2)n(-c2cccc(C(=O)Nc3cccc(C(C)=O)c3)c2)c1C | inconclusive: -40.6% |
| CN(C)CC/C=C1/c2ccc(F)cc2Sc2ccc(Cl)cc21 | inconclusive: -49% |
| CCOc1ccc(CNC(=O)c2ccc3c(c2)nc2n3CCC(C)C2)cc1OC (stereo unspecified) | inconclusive: -54.2% |
| O=C(NCc1n[nH]c(=S)n1-c1ccc(Cl)c(Cl)c1)c1ccc(S(=O)(=O)N2CCCCC2)cc1 | active: -60.5% |
| CCCOc1ccc(-c2c(C(=O)N/N=C/c3cccs3)nnn2-c2nonc2N)cc1 | inconclusive: -59.4% |
| CC(C)(C)CC(C)(C)NCC(O)COc1ccc2c(c1)CCC2 (stereo unspecified) | inconclusive: -47.6% |
| CCOC(=O)c1c(CN(C)C)n(-c2ccccc2)c2cc(Br)c(O)cc12 | inconclusive: -41.1% |
| O=C(c1cccc(NS(=O)(=O)c2ccc(F)cc2)c1)N1CCN(c2ccccc2)CC1 | inconclusive: -41.9% |
| Nc1nonc1-n1nnc(C(=O)N/N=C/c2cccnc2)c1CSc1ccc(Cl)cc1 | active: -64.8% |
| CCOc1ccc(OCC)c(NC(=O)c2csc3c2CCCC3)c1 | inconclusive: -46.1% |
| CC(=O)Nc1ccc(NC(=O)C/C(C)=N/NC(=O)C(=O)Nc2ccc(C)c(Cl)c2)cc1 | inconclusive: -57.6% |
| CCCCCn1c(-c2cccc(C)c2)nc2ccccc21 | inconclusive: -53.2% |
| CCn1c(SCc2ccc(F)cc2Cl)nc(=O)c2c(C(=O)OC)cc(C3CC3)nc21 | active: -83.5% |
| CCCOc1c(Br)cc(C2C3=C(CCCC3=O)N(C)C3=C2C(=O)CCC3)cc1OC | inconclusive: -42% |
| Cc1cc(N2CCCCC2)n2nc(C)c(-c3ccccc3)c2n1 | inconclusive: -44% |
| Nc1ccccc1N | inconclusive: -41.8% |
| CC(C)CCNC(=O)c1csc2c1CCCCC2 | inconclusive: -41.9% |
| O=C(NN=Cc1ccc2c(c1)OCO2)NN=Cc1ccc2c(c1)OCO2 | inconclusive: -51.4% |
| CC1CCC(C(C)C)C(OC(=O)Cn2c(-c3ccc(Cl)cc3)[n+](C)c3ccccc32)C1 (stereo unspecified) | inconclusive: -42.2% |
| Cc1[nH]c(=S)c(C#N)c(C)c1CCC#N | active: -119% |
| CC(=O)c1ccc(NC(=O)Nc2ccc3c(c2)N(C)C(=O)CS3)cc1 | active: -69.8% |
| O=C(COC(=O)COc1ccc(Cl)cc1)NCCNC(=O)COC(=O)COc1ccc(Cl)cc1 | active: -72.5% |

| Structure (SMILES) | activity change, negative = inhibition |
| --- | --- |
| CC(CNC(=O)CCCn1c(=O)c2cccn2c2ccccc21)c1ccccc1 (stereo unspecified) | active: -78.1% |
| O=C(Nc1ccccc1C(=O)Nc1ccccc1C(=O)O)c1ccccc1 | inactive: -5.68% |
| COc1ccccc1N1CCN(C(=O)c2sc3nc(C)nc(N4CCN(c5ccccn5)CC4)c3c2C)CC1 | inconclusive: -56.3% |
| CC[N+](CC)(CCNC(=O)C(=O)NCC[N+](CC)(CC)Cc1ccccc1Cl)Cc1ccccc1Cl | inactive: -15.3% |
| Cn1c(CNC(=O)c2ccco2)nnc1SCC(=O)N1CCN(c2ccccc2F)CC1 | active: -93.5% |
| COc1ccc(OC)c(NC(=O)CSc2nc(O)cc(=O)n2CC(C)C)c1 | active: -79.8% |
| Cc1ccc(C(=O)NNC(=O)c2cc3cc4ccccc4nc3s2)cc1 | inconclusive: -40.3% |
| CN(Cc1ccccc1)C(=O)COC(=O)C1CCN(S(=O)(=O)c2ccc(Cl)c(C(F)(F)F)c2)CC1 | active: -96% |
| CC(=O)N(C(C)=O)c1c(N2CCCC2)c2ccccc2oc1=O | inconclusive: -47.4% |
| NS(=O)(=O)c1ccc(N/N=C/c2ccc(O)c(O)c2O)c([N+](=O)[O-])c1 | inconclusive: -54.4% |
| Cc1cccc(NC(=O)C2=C(O)c3ccccc3N(C)S2(=O)=O)c1 | inactive: 17.9% |
| Cc1ccc(/C=N/n2c(-c3ccccc3)csc2=S)cc1 | inconclusive: -42.2% |
| CCCCOc1ccc(C(=O)N(Cc2ccco2)Cc2ccco2)cc1 | inconclusive: -52.3% |
| COCCNC(=O)CCCn1c(SCc2ccccc2Cl)nc2c(sc3ccccc32)c1=O | inactive: -14.5% |
| COC(=O)c1ccc([C@H]2Nc3ccc(S(=O)(=O)Nc4cccc(C)c4)cc3[C@H]3C=CC[C@H]32)cc1 | active: -70.1% |
| Cc1ccc2nc(/N=C(\N)NC(=O)NC3CCCCC3)nc(C)c2c1 | inconclusive: -45.3% |
| Cc1cc2nc(-c3ccc(SCc4ccc(C(=O)O)cc4)nc3)[nH]c2cc1C | active: -97.7% |
| Cc1ccc(C(=O)NCC(=O)N(C)Cc2ccccc2C)s1 | inactive: -1.29% |
| O=C(COc1ccc(Cl)cc1)NCC(c1ccco1)S(=O)(=O)c1ccc(Cl)cc1 (stereo unspecified) | inactive: -37.6% |
| CCOC(=O)CC(NC(=O)CCc1c(C)nc2nc(C)nn2c1C)c1ccc(OC(C)C)cc1 (stereo unspecified) | inactive: -5.64% |
| O=C(c1ccc(F)cc1)c1ccc(N2CCCCC2)cc1 | inactive: -4.78% |
| COc1ccccc1NC(=O)Nc1nc(CC(=O)Nc2cc(F)ccc2F)cs1 | inconclusive: -57.1% |

| Structure (SMILES) | activity change, negative = inhibition |
| --- | --- |
| COc1ccccc1N(CC(=O)N/N=C/c1c(O)ccc2ccccc12)S(C)(=O)=O | inconclusive: -48.4% |
| COc1ccc(C(=O)Nc2nnc(S(=O)(=O)N(C)c3ccc(C)cc3)s2)cc1 | inactive: -9.89% |
| COc1ccc(C(=O)Nc2nnc(S(=O)(=O)N3CCN(c4ccc(F)cc4)CC3)s2)cc1 | inactive: -21% |
| O=C(Nc1nc(-c2ccco2)c(-c2ccco2)s1)C1CCC1 | active: -61.3% |
| CC1(C)CC(NC(=O)c2ccc(Cl)c(S(=O)(=O)N(Cc3ccccc3)c3ccccc3)c2)CC(C)(C)N1 | inconclusive: -40.5% |
| CCOc1ccc(Nc2nc(C)c(NC(=O)c3cccc(F)c3)c(Nc3ccc(OCC)cc3)n2)cc1 | inconclusive: -44.8% |
| O=C(Nc1ccc(Cl)cc1)c1ccc(-n2cnnc2)cc1 | inactive: -17.7% |
| CCCc1nc2ccccc2c(=O)n1CCc1ccccc1 | inactive: -8.53% |
| O=C(Nc1ccc(F)cc1)c1ccc2c(=O)n(CC3CCCO3)c(=S)[nH]c2c1 (stereo unspecified) | active: -67.9% |
| O=S(=O)(Cc1ccc(Cl)cc1)C1CCCCC1O (stereo unspecified) | inconclusive: -59.2% |
| Brc1cc(Cc2nnc(-c3ccccc3)o2)c(Br)s1 | inconclusive: -55.9% |
| CC(C)c1ccc(NC(=O)c2cnc3sc(N4CCCC4)nn3c2=O)cc1 | inactive: 2.97% |
| COc1ccc(/C=C/C(=O)Oc2ccc(C)c(C)c2)cc1OC | inconclusive: -43.7% |
| Cc1ccc(S(=O)(=O)Nc2ccccc2/C=N/c2nc3ccccc3n2C(C)C)cc1 | active: -63.7% |
| Cn1c(=O)c(NCCc2ccccc2)c2c3c(cccc31)C(=O)c1ccccc1-2 | inactive: 7.55% |
| CC(C(=O)Nc1nc(-c2ccc(F)c(F)c2)cs1)N1C(=O)C2CC=CCC2C1=O (stereo unspecified) | inconclusive: -43.1% |
| CC(/C=N/NC(=O)c1ccncc1)=C\c1ccc(C(C)C)cc1 | inactive: -9.34% |
| Brc1ccc(-c2csc(N/N=C/c3ccco3)n2)cc1 | inconclusive: -51.5% |
| O=C(CN1CCC(Cc2ccccc2)CC1)N1CCc2ccccc2C1 | inactive: -0.0717% |
| COc1cc2ccccc2cc1C(=O)NC1CCC(C)CC1 (stereo unspecified) | inconclusive: -40.7% |
